In the RNAGym collection of RNA variant scans (doi:10.7554/elife.90254) one finds self-cleavage data, which are given here for 56 variants.

Read counts are not given, so values of variants with three or more changes are uncertain.

B1: LINE1-mini (parent)
chain: GGCAGAGCUCAACACAGCGUGGCAAAGUGGCUGUGGCUAGACUGCC

The variants in this series derive from B1. The series can be described thus: self-cleavage, relative activity (ratio to wild type); higher = more cleavage; in vitro, sequencing; the parent is a self-cleaving ribozyme.
Take CGCAGUGCACAACACAGCGUGGCGAACUGGCUGUGGCUAGAAUGCC [G1C A6U U9A A24G G27C C42A]: the self-cleavage was 0.01.

With CGCAGGGCUCAACACAGAGUGGCAAAGUGGCUGUGGCUAGACUGCC [G1C A6G C18A], the self-cleavage was 0.03.

Take AGCAGAGCACAACACAGCGUGGCAAAGUGGCUAUGGCUAGACUACC [G1A U9A G33A G44A]: the self-cleavage was 0.42.

On to CGCCGAGCUCAACACAGCGUGGCAAAGUUGCUGUGGUUAGACUGCC [G1C A4C G29U C37U], for which the self-cleavage was found to be 0.05.

For the variant CGCCGAGCUCAACACAGCGUGGAAAAGUGGCUGUGGGUAGACUGCC [G1C A4C C23A C37G], the self-cleavage turned out to be 0.05.

As to CGCAGUGCUCAACACAGCGUGUCAAAGUGGCUGUGGCUAUACUGCC [G1C A6U G22U G40U], the self-cleavage came out at 0.09.

For AGCAGAGCUCAACACAGCGUGGCAAAGUGACUGUGGCUAGCCUGCC [G1A G30A A41C], the self-cleavage is 0.12.

On to AGCAGAGCUCAACACAGCGUGGCAAAGUGACUGUGGCUAGGCUGCC [G1A G30A A41G], for which the self-cleavage was determined as 0.1.

In the case of CGCAGUGCUCAAAAGAGCGUGGCAAAGUGGCUGUGGCUAGACGGCC [G1C A6U C13A C15G U43G], the self-cleavage was determined as 0.03.

Regarding CGCAGGGCCCAACACAGCGGGGAAAAGUGACUGUGGCUAGACUGCC [G1C A6G U9C U20G C23A G30A], the self-cleavage worked out at 0.02.

Consider CGCGAAGCUCAACACACCGUGGCAAAGUGGCUGUGGCUAGACUGCC [G1C A4G G5A G17C], for which the self-cleavage came out at 0.02.

Consider CGCUGAGCACAUCACAGCGUUGCAAAGUGGCUUUGGCUAGACUGCC [G1C A4U U9A A12U G21U G33U], for which the self-cleavage is 0.01.

On to CGCGUAGUUCAACACAGCGUGGCAAAGUGGUUGUGGCUAGACCGCC [G1C A4G G5U C8U C31U U43C], for which the self-cleavage was 0.02.

CGCGGAGCUCAACACAGCGUUGCAAAGUGGUUGUGGCUAGACUGCC [G1C A4G G21U C31U]: the self-cleavage is 0.02.

For CGCAGGGAUCAACACAGCGUGGCAAAGUGGCUGUGGCUAGAGUGCC [G1C A6G C8A C42G], the self-cleavage amounted to 0.03.

As to CGCAGCGCUCAACACAGUGUGGCAAAGUGGCUGUAGCUAGACUGAC [G1C A6C C18U G35A C45A], the self-cleavage was 0.02.

Regarding CGCAGUCCUCAACACAGCGUGGCAAAGUGGCUGUGGCUAGACUGCC [G1C A6U G7C], the self-cleavage was 0.04.

AGCAGAGCUCAACACAGCGUGGCAAAGUGGCUAUGGCUAGACUGCU [G1A G33A C46U]: the self-cleavage was determined as 0.06.

Regarding CGCUGAGCUCAACAUAGCGUGGCAUAGAGGAGGUGGCUAGACUGCC [G1C A4U C15U A25U U28A C31A U32G], the self-cleavage is 0.01.

Turning to AGCAGAGCUCAACACAGCGUGGCAAAGGGGCUGUGGCUAGACUGGC [G1A U28G C45G], the self-cleavage came out at 0.4.

Regarding CGCCCAGCUCAACACAGCGUGGCAAAGUGGCUGUGGCUAGACUGCC [G1C A4C G5C], the self-cleavage turned out to be 0.03.

Turning to CGCAGGUCUCAACACAGCGUGGCAAAGUGGCUGUGGCUAGACUGCC [G1C A6G G7U], the self-cleavage stood at 0.02.

Consider CGCAGGGCACAACACAGCGUGGCAAAGUGGCUGUGGCUAGACUGCA [G1C A6G U9A C46A], for which the self-cleavage came to 0.05.

AGCAGAGCACAACACAGCGUGGCAAAGUGGUUGUGGCCAGACUGCC [G1A U9A C31U U38C]: the self-cleavage was determined as 0.01.

In the case of AGCAGAGCACAACACAGCGUGGCAAAGUGGUUGUGGCUAGACUGCC [G1A U9A C31U], the self-cleavage turned out to be 0.02.

For the variant AGCAGAGCUCAACACAGCGUGGCAAAGUGACUGUGGCUAGACUACC [G1A G30A G44A], the self-cleavage amounted to 2.33.

Regarding CGCCGAGCUCAACACAGCGUGGCAAAGUGGCUAGGGCAAGACUGCC [G1C A4C G33A U34G U38A], the self-cleavage stood at 0.02.

As to CGCCGAGCUCAACUCAGCGUGGCACAGUGGCUGUGCCUAGACUGCC [G1C A4C A14U A25C G36C], the self-cleavage came to 0.06.

For the variant CGCAGUGCUCAAUACAGCGUGGCAAAGUGGCUAUGGCUAGACUGCC [G1C A6U C13U G33A], the self-cleavage came to 0.16.

In the case of AGCAGAGCUCAACACAGCGCGGCAAAGUGGCUGUGGCUAGACUGGC [G1A U20C C45G], the self-cleavage was found to be 0.09.

Consider CGCGGAGCUCAACACAGCGUUGCAAAGUGGCUGUGGCUAGACUGCC [G1C A4G G21U], for which the self-cleavage is 0.72.

For the variant CGCAGUGCUAAACACACCGUUGCAAAGUGGCCGUGGCUAGACUGCC [G1C A6U C10A G17C G21U U32C], the self-cleavage was determined as 0.01.

Turning to CGCAGAGCUCCACACAGCGUGGCAAAGUGGGUGUGGCUAGACUGCC [G1C A11C C31G], the self-cleavage was determined as 0.01.

As for CGCCGAGGUCAGCACAGUGUGGCAAAAUGGCUGUGGCUAGACUGCC [G1C A4C C8G A12G C18U G27A], the self-cleavage amounted to 0.01.

For the variant AGCAGAGCGCAACACUGUGUGCCAAAGUGGCUGCGGCUAGACUGCC [G1A U9G A16U C18U G22C U34C], the self-cleavage was determined as 0.05.

As for CGCCGAGCACAACACAGCGUGGCAAAGUGGCUGUGGCUAGAAUGCC [G1C A4C U9A C42A], the self-cleavage is 0.03.

As for AGCAGAGCGCAACACAGCGUGGCGAAGUGGCUGUGGUUAGACUGCC [G1A U9G A24G C37U], the self-cleavage came out at 0.09.

With AGCAGAGCACAACACAGCGUGGAAAAGUCGCUGAGGCUAGACUGCC [G1A U9A C23A G29C U34A], the self-cleavage came out at 0.64.

In the case of CGCUGAGCUCAACAGAGCGUGGGAAAGUGUCUGUGGCUAGACUGCC [G1C A4U C15G C23G G30U], the self-cleavage amounted to 0.02.

As for AGCAGAGCUCAACACAGCGUGGCAAAGUGGCUGUUGCUAGACUGUC [G1A G35U C45U], the self-cleavage came to 0.35.

On to CGCUGAGGUCAACAGAGCGUGGCACAGUGGCUGUGUCUAGACUGCC [G1C A4U C8G C15G A25C G36U], for which the self-cleavage is 0.01.

Turning to CGCCGAGCUCAACACAGCGUGGCCAAGUGGCAGUGGGUAGACUGCC [G1C A4C A24C U32A C37G], the self-cleavage came to 0.01.

On to CGCAGCGCUCAACACAGCAUGGCAAAGUGGCUUUGGCUAGACUGCC [G1C A6C G19A G33U], for which the self-cleavage came to 0.07.

As for AGCAGAGCUCAACACAGCGUGGCAAAGUGGCUGUAGUUAGACUGCC [G1A G35A C37U], the self-cleavage came to 0.09.

With AGCAGAGCCCAACAAAGCGUGGCAAAGUGGCUGUGGCUAGACUGCC [G1A U9C C15A], the self-cleavage is 0.03.

Turning to CGCUGAGCUCAACACAGCGUGGCAAAUUGGCUGUGGCUAGACUGCC [G1C A4U G27U], the self-cleavage was determined as 0.04.

On to CGCCGUGCUAAACACUGCGUGCCAAAUUGCCUGUGGCUAGUCUGCC [G1C A4C A6U C10A A16U G22C G27U G30C A41U], for which the self-cleavage worked out at 0.01.

As for AGCAGAGCUCAACACAGCGUGGCAAAGUGGCUUUGACUAGACUGCC [G1A G33U G36A], the self-cleavage is 0.03.

On to AGCAGAGCUCAACACAGCGUGGCAAAGUGGCUGGGGUUAGACUGCC [G1A U34G C37U], for which the self-cleavage was found to be 0.06.

On to AGCAGAGCCCAACACGCCGUGGCAAAGUUGCUGUGGCUAGACUUCC [G1A U9C A16G G17C G29U G44U], for which the self-cleavage was 0.1.

For the variant AGCAGAGCUCAACACAGCGUGGCAAAGUGCCUGUGCCUAGACUGCC [G1A G30C G36C], the self-cleavage turned out to be 0.06.

For CGCAGCGCUCAACACAGCGUGGCAAAGGGGCUGUGGCUAGACUGCC [G1C A6C U28G], the self-cleavage is 0.02.

As for CGCAGCGCUCAACACAGCGUGGCAAAGGGGCUGUGGAUGGAUUGCC [G1C A6C U28G C37A A39G C42U], the self-cleavage was 0.01.

For AGCAGAGCUCAACACAGCGUGGCAAAGUGGCUGUUGCUAUUCUGCC [G1A G35U G40U A41U], the self-cleavage came out at 0.03.

Regarding AGCAGAGCUCAACACAGCGUGGCAAAGUGGCUGUGGCCAGACUCCC [G1A U38C G44C], the self-cleavage is 0.05.

On to AGCAGAGCUCAACACAGCGUGGCAAAGUGGCUAUGUCUAGACUGCC [G1A G33A G36U], for which the self-cleavage is 0.09.
